The results in this text go back to paper PMC7819943, “Rice protein-binding microarrays: a tool to detect cis-acting elements near promoter regions in rice”.

This is one part of the list.

This test has as its target T1, OsWOX13 (Oryza sativa, UniProt Q5QMM3 1-267).
T1 sequence: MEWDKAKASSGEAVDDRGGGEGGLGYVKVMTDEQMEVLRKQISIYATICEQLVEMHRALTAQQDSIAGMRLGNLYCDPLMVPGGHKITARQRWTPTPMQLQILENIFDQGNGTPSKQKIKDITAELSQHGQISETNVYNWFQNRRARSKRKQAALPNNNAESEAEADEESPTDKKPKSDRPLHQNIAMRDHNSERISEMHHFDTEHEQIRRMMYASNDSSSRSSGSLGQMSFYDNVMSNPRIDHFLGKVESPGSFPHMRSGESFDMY
The test can be described thus: protein-binding microarray (RPBM); PBS, 2% BSA, 51.3 ng/ul salmon testes DNA, 50 uM zinc acetate, 200 nM TF, 25 C, 1 h; high values mean tight binding. Particulars: protein: recombinant; tags: N-terminal polyhistidine and DsRed monomer fusion (pET32a); label: CyDye5-dUTP incorporated in the synthesized complementary strand; 3' TTTTT single-stranded linker to array surface; dsDNA, one strand shown. The method, boiled down:
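Per-feature fluorescence intensity (arbitrary units), read on an Axon 4000B scanner, is the binding signal. Transcription factors carrying an N-terminal polyhistidine tag and DsRed fusion were expressed in E. coli BL21-CodonPlus and purified on Ni–NTA. A custom Agilent array, made double-stranded by primer extension with Cy5-dUTP and blocked with 2% BSA, was incubated with 200 nM protein in PBS, 2% BSA, salmon testes DNA and 50 µM zinc acetate at 25 °C for 1 h and then washed.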
Regarding “TGGCTTCTTTGATTAGGTATTTATTCGACGTGTGATATTGCGGAGTCACCTAGTGCAG”, the binding signal is 7660 fluorescence intensity (a.u.).
For “GGACTAATTTGTTTATTGAGTTTATATACGGATAATTAGACGGAGTCACCTAGTGCAG”, the binding signal is 31600 fluorescence intensity (a.u.).
Under “ATGGCTTCAATTAATTCACCTATGGGCAGCATCAACCCACCGGAGTCACCTAGTGCAG” stands 3980 fluorescence intensity (a.u.).
For the sequence “GTATGGTTGACTGAATTGTTTGACTTATCTTTGGCATTGACGGAGTCACCTAGTGCAG”, the binding signal was 6840 fluorescence intensity (a.u.).
The same measure for “TGTAACGAGATATGATTGAAAAGTACGAATTTCAGCGGAACGGAGTCACCTAGTGCAG”: 43900 fluorescence intensity (a.u.).
The same measure for “ATAATGTGTGATTAATTGAGTTTTAGTTATTACAAACTTGCGGAGTCACCTAGTGCAG”: 40800 fluorescence intensity (a.u.); for “TTTTAATTATGTTAATTTGGCATAACAGTGAGTATTTTACCGGAGTCACCTAGTGCAG”: 36900 fluorescence intensity (a.u.); for “GCTGTGATGAGGTGGATCATAAATTTATAATAGAGATGATCGGAGTCACCTAGTGCAG”: 6890 fluorescence intensity (a.u.).
Under “GTGGGTATTGATTTGCTCCAGAAGTGAGATAAGCCTTTCTCGGAGTCACCTAGTGCAG” stands 10700 fluorescence intensity (a.u.); under “TGGCGACCAATTTTAATTGGGTCCTATCATGTTGGAGGAACGGAGTCACCTAGTGCAG”, 3160 fluorescence intensity (a.u.).
As for “ATTAATGAACTAAAATGCGTCAAATATATAACATTGATATCGGAGTCACCTAGTGCAG”, the binding signal was 4470 fluorescence intensity (a.u.).
Take “TTGTTAAATAGATTAATCTGATATTTTAGAACAACTTTCACGGAGTCACCTAGTGCAG”: the binding signal was 12800 fluorescence intensity (a.u.).
Under “ATTTTGTGATTTCGTATCATTGTATTGGTTGCAGGTCATTCGGAGTCACCTAGTGCAG” stands 6590 fluorescence intensity (a.u.); under “CCACATTAATATTGATATTAATGAATCTAGACTATATCTCCGGAGTCACCTAGTGCAG”, 6470 fluorescence intensity (a.u.).
Take “GTGTAAATTAAATTTGGCGTTTTGTATTTGTGGAGGGACACGGAGTCACCTAGTGCAG”: the binding signal is 23800 fluorescence intensity (a.u.).
Under “ATTAATTTTACTCGGCTAATGGCATGCATATTTCACGGAACGGAGTCACCTAGTGCAG” stands 15000 fluorescence intensity (a.u.); under “GCGCTGATGAGCATTTTGTTGAAGACAACATTGAGGTGCCCGGAGTCACCTAGTGCAG”, 19100 fluorescence intensity (a.u.); under “CATAATAATTCTGTTAATTTATCGTTGGGGTAGTTTATTACGGAGTCACCTAGTGCAG”, 19000 fluorescence intensity (a.u.).
The same measure for “GTTATTTTGATTAGGGTGCAATTAAGCTGCCCAAACCTTCCGGAGTCACCTAGTGCAG”: 22000 fluorescence intensity (a.u.); for “CTGCAGATAACGCTTGATGATTTACGACCAACTGCAAATTCGGAGTCACCTAGTGCAG”: 4510 fluorescence intensity (a.u.); for “GAAATCAATTATGTAGCAGTGCGATACATACAAATTTTGACGGAGTCACCTAGTGCAG”: 10900 fluorescence intensity (a.u.).
With “GATTTGATGAATGAAGTATTTAGTAGTAGAAGGACTTGAGCGGAGTCACCTAGTGCAG”, the binding signal is 3400 fluorescence intensity (a.u.).
For the sequence “CTCCTTCTGATTTGGGCGCGGTGGATTTGTGAATGGCAGCCGGAGTCACCTAGTGCAG”, the binding signal is 5220 fluorescence intensity (a.u.).
As for “GTGACAATTAAAGATTTGCCACTAGACCCCACATGTCATACGGAGTCACCTAGTGCAG”, the binding signal was 4820 fluorescence intensity (a.u.).
With “AATTTACGTAATTATAATTTATTTTGTTATGAGTTGTTTTCGGAGTCACCTAGTGCAG”, the binding signal was 29500 fluorescence intensity (a.u.).
Consider “AAGGCGATTAGATTAGCGAGCACCGCACACCCGAACGCCACGGAGTCACCTAGTGCAG”, for which the binding signal is 5830 fluorescence intensity (a.u.).
Turning to “AGTGAAACGGTGTCAATTACTGCCTTGTCACTTACTGATGCGGAGTCACCTAGTGCAG”, the binding signal is 9520 fluorescence intensity (a.u.).
Turning to “TTTGTGAATTTGGTAATAATTTATTCAAATTCAATATAAACGGAGTCACCTAGTGCAG”, the binding signal is 3510 fluorescence intensity (a.u.).
The same measure for “CACCTGATTTTCAAAATTCAAGCAAATGCAGCTTCTGATGCGGAGTCACCTAGTGCAG”: 4770 fluorescence intensity (a.u.); for “ACCATTGATGGTCCCAATTTAAAATATTTGGCCGAATCTTCGGAGTCACCTAGTGCAG”: 3840 fluorescence intensity (a.u.).
The same measure for “ATCAATTAATCATGTTGTGTTTATCCACCATTGTCGACTGCGGAGTCACCTAGTGCAG”: 16800 fluorescence intensity (a.u.).
Regarding “TTTACTAATAAAATAATTAGGAGTTATTTTGCATTTATATCGGAGTCACCTAGTGCAG”, the binding signal is 3880 fluorescence intensity (a.u.).
Consider “TGATAACTGTGTTGATGTTAACAGGCCATCGATGTGTATCCGGAGTCACCTAGTGCAG”, for which the binding signal was 9200 fluorescence intensity (a.u.).
With “TTCCTTATAAATTAGATTGGTATGGTTCCTTGATACTAACCGGAGTCACCTAGTGCAG”, the binding signal was 16100 fluorescence intensity (a.u.).
As to “TATTAATTAATGGGATGTATTCTCCCCTTCTCTCATCATACGGAGTCACCTAGTGCAG”, the binding signal was 36500 fluorescence intensity (a.u.).
For the sequence “ATATTCAGCTGATTGGGGCATTGGGTATTTGCAGTGAGCACGGAGTCACCTAGTGCAG”, the binding signal is 18500 fluorescence intensity (a.u.).
With “CACTGATTTTGCTATGTTTACTTTATGTATAGGTGTTTCTCGGAGTCACCTAGTGCAG”, the binding signal was 5500 fluorescence intensity (a.u.).
As for “ATTCCATTTCCATTCCCGCTTGATTTTCCCTCCCATTCTTCGGAGTCACCTAGTGCAG”, the binding signal is 5400 fluorescence intensity (a.u.).
With “GAAACATGTTGAGATTGATTTACATTTTGTGCGCGAGAAGCGGAGTCACCTAGTGCAG”, the binding signal is 18000 fluorescence intensity (a.u.).
The same measure for “AATTTGATAATAACTTAGAGTGATTAACTTGCTGTATGATCGGAGTCACCTAGTGCAG”: 10700 fluorescence intensity (a.u.); for “ATGATTTCGTTAATATCAAGATATATCAGTCGAGTCTTCTCGGAGTCACCTAGTGCAG”: 5410 fluorescence intensity (a.u.); for “CGTGATTATATTCCGATGAAACTATAACAAATATTTCAGGCGGAGTCACCTAGTGCAG”: 40500 fluorescence intensity (a.u.).
